Among all 220,000 compounds or so, about 5,700 (2.6%) were called active. This list was built around the results that the source calls inconclusive (neither active nor inactive); the mix of calls is not that of the screen. The call rests on the fitted dose curve; in most records, active means well fitted inhibition curve with a large enough effect; inconclusive means small, poorly fitted or top-dose-only effect; inactive means no such curve, though single readings can be large or run the other way. Potencies beside an inconclusive call are fits to weak or partial responses and may not hold up.
Molecular target: Lysine-specific demethylase 5B (Homo sapiens) (UniProt Q9UGL1)
Test: Primary screen for KDM5B Histone Demethylases FDH-coupled qHTS; further: nearly all actives have a fitted effect of over 70% in size; on activity change, negative = inhibition: 0% is about no effect
Settings: FDH-coupled NADH fluorescence (FDH is formaldehyde dehydrogenase); activity change, negative = inhibition: at 57.7 µM (top of the series) unless noted
Procedure, shortened: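 qHTS format, multiple compound concentrations. Buffer 50 mM HEPES pH 7.5/0.01% Tween-20; 200 nM KDM5BΔAP final; 10 min compound preincubation; substrate-mix levels 12.5 µM peptide, 25 µM α-KG, 0.25 mM NAD⁺; 30 min RT; ΔRFU.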
Potency means the concentration at half of the fitted maximal effect; tags describe the fitted curve by direction and shape.

UniProt Q9UGL1, sequence (Q9UGL1 whole entry, looked up): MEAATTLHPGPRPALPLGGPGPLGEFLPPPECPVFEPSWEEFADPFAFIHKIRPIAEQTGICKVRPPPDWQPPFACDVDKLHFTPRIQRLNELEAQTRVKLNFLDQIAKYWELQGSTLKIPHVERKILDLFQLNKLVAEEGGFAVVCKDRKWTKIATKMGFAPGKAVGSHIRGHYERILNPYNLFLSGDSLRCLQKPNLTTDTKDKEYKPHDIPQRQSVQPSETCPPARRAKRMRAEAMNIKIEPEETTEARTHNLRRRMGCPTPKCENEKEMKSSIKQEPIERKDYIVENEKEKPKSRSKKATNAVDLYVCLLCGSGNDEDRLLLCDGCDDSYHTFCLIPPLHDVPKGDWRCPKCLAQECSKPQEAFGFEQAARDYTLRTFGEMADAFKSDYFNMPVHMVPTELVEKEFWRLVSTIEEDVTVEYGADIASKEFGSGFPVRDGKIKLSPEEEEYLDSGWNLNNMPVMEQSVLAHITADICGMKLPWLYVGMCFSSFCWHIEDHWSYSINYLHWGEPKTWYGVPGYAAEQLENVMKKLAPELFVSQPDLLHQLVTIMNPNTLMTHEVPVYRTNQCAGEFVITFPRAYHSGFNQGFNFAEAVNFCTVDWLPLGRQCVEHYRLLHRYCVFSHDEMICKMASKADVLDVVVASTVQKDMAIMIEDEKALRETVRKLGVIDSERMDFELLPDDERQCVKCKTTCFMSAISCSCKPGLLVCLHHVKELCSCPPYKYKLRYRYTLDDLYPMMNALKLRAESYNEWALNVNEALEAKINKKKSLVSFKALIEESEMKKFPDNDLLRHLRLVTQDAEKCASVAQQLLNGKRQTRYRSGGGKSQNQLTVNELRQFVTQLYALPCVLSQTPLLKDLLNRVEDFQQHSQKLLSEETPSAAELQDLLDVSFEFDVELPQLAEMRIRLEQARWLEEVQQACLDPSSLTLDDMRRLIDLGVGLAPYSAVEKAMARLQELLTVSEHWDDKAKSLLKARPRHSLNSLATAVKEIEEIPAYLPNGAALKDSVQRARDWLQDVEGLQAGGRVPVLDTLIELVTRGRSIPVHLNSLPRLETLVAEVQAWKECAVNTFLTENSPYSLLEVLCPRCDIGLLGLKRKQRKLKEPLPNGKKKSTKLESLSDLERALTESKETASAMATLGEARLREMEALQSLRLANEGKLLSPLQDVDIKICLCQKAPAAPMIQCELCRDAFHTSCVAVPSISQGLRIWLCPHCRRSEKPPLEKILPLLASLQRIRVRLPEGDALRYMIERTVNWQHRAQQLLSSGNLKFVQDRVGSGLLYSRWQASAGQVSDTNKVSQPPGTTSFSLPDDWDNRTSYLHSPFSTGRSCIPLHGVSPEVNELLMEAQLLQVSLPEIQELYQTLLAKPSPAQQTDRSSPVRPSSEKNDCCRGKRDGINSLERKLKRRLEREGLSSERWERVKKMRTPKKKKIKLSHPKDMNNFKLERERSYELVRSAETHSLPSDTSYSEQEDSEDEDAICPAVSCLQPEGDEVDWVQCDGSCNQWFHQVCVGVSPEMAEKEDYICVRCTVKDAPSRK

Structure (SMILES)	Potency	activity change, negative = inhibition
O=c1n(-c2ccc(F)cc2F)nc2n1CCN(Cc1cccc3ccccc13)C2	inconclusive: 31.6 µM [inhibitor, partial curve, poor fit]	
O=C(COC(=O)c1cc(-c2cccs2)nc2ccccc12)c1ccc(Br)cc1	inconclusive: 10 µM [inhibitor, partial curve, poor fit]	
CC1=C(C)C(C)=C(C#N)C(=C(C#N)C#N)N1	inconclusive: 28.2 µM [inhibitor, partial curve, poor fit]	
CC1CCC2(CC1)NC(=O)N(CC(=O)NC(C)c1ccccc1)C2=O (stereo not given)		inactive: 26.9%
c1cncc(-c2cnc3n[nH]c(-c4ccc5c(c4)OCO5)c3n2)c1		inactive: 17.7% [at 86.2 µM]
CC(C)Cn1c(SCC(=O)c2ccc(C#N)cc2)nnc1-c1ccccc1	inconclusive: 39.8 µM [inhibitor, single point]	
COCc1ccc(C(=O)NCC2(N3CCCCC3)CCCCC2)cc1	inconclusive: 20 µM [inhibitor, partial curve, poor fit]	
COc1cccc(-c2cc(C(=O)NC3CC3)c3ccccc3n2)c1		inactive: -6.09%
Cc1cc(C(=O)NNC(=S)NC(=O)c2ccccc2)cs1	inconclusive: 39.8 µM [inhibitor, single point]	
Fc1ccc(CN2CCC3(CC(Cc4ccccc4)=NO3)C2)cc1 (stereo not given)	active: 31.6 µM	
O=C(NCc1nnc2c(-c3nc(C4CC4)no3)cccn12)C1CC1	active: 22.4 µM	
Cc1c(C(=O)N2CCC(c3nc4ccccc4s3)CC2)oc2cc(Br)ccc12		inconclusive: -161% [inhibitor] [at 11.5 µM]
CC(C)(C)C(=O)N1CC[C@@H](CC(=O)O)[C@@H](CCN2CCN(c3cccc(C(F)(F)F)c3)CC2)C1		inactive: 19%
Cc1nc2scc(CC(=O)N3CCCC3)n2c(=O)c1-c1cc(C)n(-c2ccc(F)cc2)n1	inconclusive: 28.2 µM [inhibitor, partial curve, poor fit]	
COc1cc(C2c3c(oc4cc(C)c(C)cc4c3=O)C(=O)N2CCCN2CCOCC2)ccc1O (stereo not given)	inconclusive: 25.1 µM [inhibitor, partial curve, poor fit]	
COc1ccccc1-n1[nH]c(C)c(Cc2cccc(Cl)c2)c1=O	inconclusive: 39.8 µM [inhibitor, single point]	
COc1ccccc1CCC(=O)N1CCC2(CC1)NC(=O)N(c1ccccc1)N2	inconclusive: 17.8 µM [inhibitor, partial curve]	
CCOC(=O)c1cc(NC(=O)c2ccc(C(C)(C)C)cc2)c(=O)n2c1oc1cc(Cl)ccc12	inconclusive: 25.1 µM [inhibitor, partial curve, poor fit]	
Cc1ccc2c(c1)c1c(c(=O)n(-c3cccc(Cl)c3)c(=O)n1CC(=O)N1CCCC1)n2C	inconclusive: 3.16 µM [inhibitor, full curve, poor fit]	
Cc1ccc(NC(=O)Cn2c(=O)n(Cc3ccco3)c(=O)c3ccccc32)c(C)c1	inconclusive: 35.5 µM [inhibitor, single point]	

Structure (SMILES)	Potency	activity change, negative = inhibition
CCN(CC)c1cc2c(cc1F)c(=O)c(S(=O)(=O)c1cccc(C)c1)cn2C	inconclusive: 28.2 µM [inhibitor, partial curve, poor fit]	
Cc1ccc(-c2cn(-c3cccc(Cl)c3)c(S(=O)(=O)CC(=O)Nc3ccccc3F)n2)cc1	inconclusive: 14.1 µM [inhibitor, partial curve, poor fit]	
CCOc1ccccc1CN1CCN(c2ncnc3[nH]ccc23)CC1CCO (stereo not given)		inactive: -1.92%
COC(=O)c1cccc(NC(=O)CN(C)Cc2nc3ccccc3c(=O)[nH]2)c1		inactive: -19%
Cc1ccc(-n2c(=O)c3ccc(C(=O)NCc4ccco4)cc3n(Cc3ccccc3C#N)c2=O)cc1	inconclusive: 15.8 µM [inhibitor, partial curve, poor fit]	
COc1ccc(CC(=O)NCC(=O)N2CCN(c3ccccn3)CC2)cc1	active: 31.6 µM	
CN(C)CC(=O)N1Cc2ccccc2CC2(CCCN(CC3CCNCC3)C2)C1 (stereo not given)	inconclusive: 28.2 µM [inhibitor, partial curve, poor fit]	
O=C(Cc1ccccc1Cl)N1CCN(c2cc(-c3cccs3)[nH]n2)CC1	inconclusive: 28.2 µM [inhibitor, partial curve]	
O=C(O)CCn1ncc2cc(OCC3CCN(c4ncc(F)cn4)CC3)ccc21	active: 35.5 µM	
CCOCCCN(C(=O)c1snc(C(N)=O)c1N)C(C(=O)NC1CCCC1)c1ccc(OC)cc1 (stereo not given)	inconclusive: 28.2 µM [inhibitor, partial curve, poor fit]	
CN(C)S(=O)(=O)N1CCC(Nc2cccnc2)C1 (stereo not given)	active: 8.91 µM	
COc1ccc(NCc2cc3cc4c(cc3n(CC(=O)Nc3cc(C)ccc3C)c2=O)OCCO4)cc1		inactive: -18.9%
Cc1ccc(OCc2nc(-c3ccccc3OCC(=O)N3CCCC(C)C3)no2)cc1 (stereo not given)	inconclusive: 35.5 µM [inhibitor, single point]	
Cc1nn2c(=O)cc(COC(=O)c3ccccc3NC(=O)C(C)Oc3ccccc3)nc2s1 (stereo not given)	inactive	
CCOc1ccc(CN2CCc3nc(Nc4ccc5c(c4)OCCO5)ncc3C2)cc1	inconclusive: 15.8 µM [inhibitor, partial curve, poor fit]	
c1ccc(Nc2cc3c(cn2)NCCN(Cc2cccs2)C3)cc1	inconclusive: 35.5 µM [inhibitor, partial curve, poor fit]	
Cc1c(C)c2ccc(OCC(=O)NCc3ccncc3)cc2oc1=O	inconclusive: 25.1 µM [inhibitor, partial curve, poor fit]	
COc1ccc(CCNC(=O)c2ccc(Cn3c(=O)c4ccccc4n(Cc4cccc(Cl)c4)c3=O)cc2)cc1OC	inconclusive: 35.5 µM [inhibitor, partial curve, poor fit]	
COc1ccccc1N1CCN(C(=O)Cn2c(N3CCc4ccccc4C3)nc(C)cc2=O)CC1	inconclusive: 25.1 µM [inhibitor, partial curve]	
CCOc1ccccc1NC(=O)C(CC)Sc1nc2ccncc2[nH]1 (stereo not given)	inconclusive: 12.6 µM [inhibitor, partial curve, poor fit]	

Source: PubChem BioAssay AID1347165 (National Center for Advancing Translational Sciences (NCATS), 2019)
